Measured values: patent US11178870B2 (priority 2017, dated 2021)

Experiments:
Magnaporthe grisea = type: in vivo; conditions: class of control value, Table 7
Phytophthora infestans = type: in vivo; conditions: class of control value, Table 7
[1] = test system: Colletotrichum orbiculare; conditions: 250 ppm spray, 2.5 ml/pot; investigated 6 to 10 days after inoculation

| SMILES | Test A control value (blast on rice) (Magnaporthe grisea) | Test F control value (late blight on tomato) (Phytophthora infestans) | Test H control value (anthracnose on cucumber) [1] |
| --- | --- | --- | --- |
| CCn1c(-c2c(F)cccc2F)c(-c2sccc2Cl)cc(Cl)c1=O [Compound 395] | H (H shows the control value more than 50%) | L (L shows the control value of 50% or less) | H (H shows the control value more than 50%) |
| Cn1c(-c2c(F)cccc2F)c(-c2sc(Br)cc2Cl)cc(Br)c1=O [Compound 442] | H (H shows the control value more than 50%) | L (L shows the control value of 50% or less) | L (L shows the control value of 50% or less) |
| Cc1cnn(-c2cc(Cl)c(=O)n(C)c2-c2ccccc2F)c1Cl [Compound 488] | H (H shows the control value more than 50%) | L (L shows the control value of 50% or less) | H (H shows the control value more than 50%) |
| Cc1sccc1-c1cc(Br)c(=O)n(C)c1-c1c(F)cccc1F [Compound 492] | L (L shows the control value of 50% or less) | L (L shows the control value of 50% or less) | L (L shows the control value of 50% or less) |
| Cc1cnn(-c2cc(Br)c(=O)n(C)c2-c2ccccc2F)c1 [Compound 489] | L (L shows the control value of 50% or less) | L (L shows the control value of 50% or less) | L (L shows the control value of 50% or less) |
| Cc1sccc1-c1cc(Cl)c(=O)n(CC(F)F)c1-c1c(F)cccc1F [Compound 480] | L (L shows the control value of 50% or less) | L (L shows the control value of 50% or less) | L (L shows the control value of 50% or less) |
